{"source": "the supplement of paper PMC3334620", "note": "Whole data set: some 33,000 sequences, median “E-score (-0.5 to 0.5)” near -0.012, cut for the highest 2% near 0.27. Some of the results follow."}
{"target": "T1, Vhr1 (UniProt P40522)", "T1 sequence": "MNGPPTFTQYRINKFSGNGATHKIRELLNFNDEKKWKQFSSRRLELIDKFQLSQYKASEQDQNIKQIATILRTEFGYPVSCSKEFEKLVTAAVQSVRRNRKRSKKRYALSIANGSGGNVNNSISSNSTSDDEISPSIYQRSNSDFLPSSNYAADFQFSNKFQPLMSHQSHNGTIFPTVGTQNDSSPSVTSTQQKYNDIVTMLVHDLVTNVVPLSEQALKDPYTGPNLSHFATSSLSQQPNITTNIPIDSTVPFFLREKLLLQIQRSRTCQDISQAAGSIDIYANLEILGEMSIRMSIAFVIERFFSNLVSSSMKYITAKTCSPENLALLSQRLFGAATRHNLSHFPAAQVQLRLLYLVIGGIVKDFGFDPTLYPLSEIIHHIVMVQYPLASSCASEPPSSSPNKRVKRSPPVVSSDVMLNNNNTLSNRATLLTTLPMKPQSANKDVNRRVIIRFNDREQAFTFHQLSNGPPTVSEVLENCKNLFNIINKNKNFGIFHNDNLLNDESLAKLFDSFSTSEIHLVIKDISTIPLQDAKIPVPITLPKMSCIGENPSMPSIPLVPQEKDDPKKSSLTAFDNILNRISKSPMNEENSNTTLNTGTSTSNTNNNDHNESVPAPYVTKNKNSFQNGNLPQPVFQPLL", "test": "PBM E-score (8-mer binding enrichment) (E-score (-0.5 to 0.5)); higher = stronger / more preferred TF binding; most listed sequences are background and not binding sites", "settings": "protein concentration: 200 nM; construct: GST-full length", "in_short": "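GST-tagged yeast TFs (full-length or DNA-binding domain) were made by PURExpress in vitro transcription/translation and applied at about 100-200 nM to universal all-10-mer Agilent arrays. The arrays were made double-stranded by primer extension, on fresh or once-stripped slides. Bound protein was detected with fluorescent anti-GST, and scans were normalised with masliner. Each ungapped eight-base word, pooled with its reverse complement, received an E-score (modified Wilcoxon-Mann-Whitney statistic) from the Universal PBM Analysis Suite.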"}
{"sequence": "ATGAATGC", "PBM E-score": 0.0712}
{"sequence": "CTCATAAC", "PBM E-score": 0.00985}
{"sequence": "ATGACAAT", "PBM E-score": -0.0432}
{"sequence": "AATTTCTG", "PBM E-score": -0.194}
{"sequence": "GAGCATAA", "PBM E-score": -0.00172}
{"sequence": "AAATTTAA", "PBM E-score": -0.0182}
{"sequence": "ATACGTAG", "PBM E-score": 0.021}
{"sequence": "GTTCTGCA", "PBM E-score": -0.0901}
{"sequence": "CCGTGCTA", "PBM E-score": -0.0852}
{"sequence": "ACTCAGCC", "PBM E-score": 0.151}
{"sequence": "TCTCGTAA", "PBM E-score": -0.0557}
{"sequence": "GTATTCAC", "PBM E-score": -0.0445}
{"sequence": "CCCAGTCG", "PBM E-score": -0.0314}
{"sequence": "ATGCTACG", "PBM E-score": 0.116}
{"sequence": "AAACGTAC", "PBM E-score": -0.109}
{"sequence": "ACATGAAC", "PBM E-score": 0.101}
{"sequence": "ATCACAGG", "PBM E-score": 0.135}
{"sequence": "TGCTCCAA", "PBM E-score": 0.0362}
{"sequence": "CCATAGGC", "PBM E-score": -0.172}
{"sequence": "ACGAGCTG", "PBM E-score": 0.163}
{"sequence": "CAAGCGCA", "PBM E-score": 0.143}
{"sequence": "CTTCTGAC", "PBM E-score": -0.123}
{"sequence": "GGGAAGAA", "PBM E-score": -0.0968}
{"sequence": "ACACAAGG", "PBM E-score": 0.0446}
{"sequence": "ATAGGTCG", "PBM E-score": 0.125}
{"sequence": "ATCCTGCG", "PBM E-score": -0.0823}
{"sequence": "TCCTTCCA", "PBM E-score": -0.0415}
{"sequence": "CATTATTC", "PBM E-score": 0.133}
{"sequence": "CGAAGACC", "PBM E-score": 0.105}
{"sequence": "AGTCGCCA", "PBM E-score": 0.233}
{"sequence": "CTCTTAAG", "PBM E-score": -0.19}
{"sequence": "ATCCCCGG", "PBM E-score": -0.09}
{"sequence": "CTTTGAGC", "PBM E-score": -0.264}
{"sequence": "ATGCCCAT", "PBM E-score": -0.0186}
{"sequence": "ACTGCACA", "PBM E-score": -0.0147}
{"sequence": "CATCGTCG", "PBM E-score": -0.044}
{"sequence": "CTTGAGAC", "PBM E-score": -0.248}
{"sequence": "CATGACCG", "PBM E-score": 0.0167}
{"sequence": "CACGAATG", "PBM E-score": 0.124}
{"sequence": "ACGCCTTC", "PBM E-score": -0.251}
{"sequence": "AGACCTCT", "PBM E-score": -0.143}
{"sequence": "ATAGGTAA", "PBM E-score": 0.0149}
{"sequence": "ACTGCACT", "PBM E-score": -0.00619}
{"sequence": "CGCAAAAC", "PBM E-score": 0.042}
{"sequence": "CTCACCGC", "PBM E-score": 0.207}
{"sequence": "GCACCCGC", "PBM E-score": -0.0344}
{"sequence": "AGGGTGAT", "PBM E-score": 0.163}
{"sequence": "CGAATCGC", "PBM E-score": 0.164}
{"sequence": "AGTTAATA", "PBM E-score": 0.216}
{"sequence": "AGACAGCT", "PBM E-score": -0.0952}
{"sequence": "TCTTAAGA", "PBM E-score": -0.051}
{"sequence": "AAATCGGG", "PBM E-score": -0.0685}
{"sequence": "ATATCTAA", "PBM E-score": 0.0519}
{"sequence": "CTCGGAGA", "PBM E-score": -0.0274}
{"sequence": "GTCAGATA", "PBM E-score": 0.0217}
{"sequence": "ACGCTCAC", "PBM E-score": 0.0787}
{"sequence": "GATACAGC", "PBM E-score": -0.00349}
{"sequence": "CTGATTGC", "PBM E-score": 0.035}
{"sequence": "AAGAGCCT", "PBM E-score": -0.214}
{"sequence": "ATGCTAAG", "PBM E-score": -0.0834}
{"sequence": "AACGTGTG", "PBM E-score": -0.122}
{"sequence": "CTCCAATC", "PBM E-score": 0.0374}
{"sequence": "GCCCAACC", "PBM E-score": 0.0849}
{"sequence": "CAGACACG", "PBM E-score": 0.0686}
{"sequence": "ATATTGTC", "PBM E-score": 0.0611}
{"sequence": "ACCTTTCA", "PBM E-score": -0.196}
{"sequence": "GACGATCC", "PBM E-score": 0.0947}
{"sequence": "ACGCGGCG", "PBM E-score": 0.0974}
{"sequence": "CTATGGGA", "PBM E-score": -0.189}
{"sequence": "AAGTGCCC", "PBM E-score": -0.0905}
{"sequence": "AGAACAGC", "PBM E-score": -0.0119}
{"sequence": "ATCATAGC", "PBM E-score": 0.218}
{"sequence": "GAACTACC", "PBM E-score": -0.0176}
{"sequence": "GAACACGC", "PBM E-score": 0.0339}
{"sequence": "CTGCTGAC", "PBM E-score": 0.254}
{"sequence": "CTAATCTA", "PBM E-score": -0.115}
{"sequence": "GTCCTAGA", "PBM E-score": -0.31}
{"sequence": "TGACGTCA", "PBM E-score": 0.0832}
{"sequence": "AAACCATG", "PBM E-score": 0.214}
{"sequence": "AACCCGCT", "PBM E-score": -0.172}
{"sequence": "ACTGAATA", "PBM E-score": 0.0125}
{"sequence": "AGAGACCA", "PBM E-score": 0.0342}
{"sequence": "AACGACTA", "PBM E-score": 0.0488}
{"sequence": "TCCGGCAA", "PBM E-score": 0.14}
{"sequence": "CGAGGTAA", "PBM E-score": -0.0995}
{"sequence": "CTTAGGTA", "PBM E-score": -0.0978}
